Assay results taken from PubChem BioAssay AID1461 (National Center for Advancing Translational Sciences (NCATS), 2008).
Screen size: about 220,000 compounds; about 2,300 (1%) were called active. The inconclusive results got no clear call from the source; some entries with a clear call stand among them for comparison. Calls follow the shape of the dose curve; as a rule, active = well fitted inhibition curve with a large enough effect; inconclusive = small, poorly fitted or top-dose-only effect, or effect the other way; inactive = no such curve, though single readings can be large or run the other way. No potency is given beside an inconclusive call; the fits are too rough.

Biological target: Neuropeptide S receptor (Homo sapiens) (UniProt Q6W5P4)
Chain of UniProt Q6W5P4 (Q6W5P4 whole entry, looked up): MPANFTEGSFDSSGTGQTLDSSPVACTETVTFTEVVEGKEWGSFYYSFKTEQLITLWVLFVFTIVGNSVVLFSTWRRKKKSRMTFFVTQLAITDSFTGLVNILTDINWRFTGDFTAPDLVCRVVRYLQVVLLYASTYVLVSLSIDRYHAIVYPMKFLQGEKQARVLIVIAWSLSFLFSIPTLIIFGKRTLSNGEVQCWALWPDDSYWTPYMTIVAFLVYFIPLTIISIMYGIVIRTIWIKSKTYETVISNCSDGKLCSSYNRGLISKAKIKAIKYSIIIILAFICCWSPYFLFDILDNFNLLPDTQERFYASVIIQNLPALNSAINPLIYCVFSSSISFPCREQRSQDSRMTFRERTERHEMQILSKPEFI
Assay: qHTS Assay for Antagonists of the Neuropeptide S Receptor: cAMP Signal Transduction; also: nearly all actives have a fitted effect of over 50% in size
Conditions: CHO-NPSR cells, cAMP TR-FRET, antagonist mode; activity change, negative = inhibition: at 38.3 µM (top of the series) unless noted
% is scaled to controls: 0 for no effect and ±100 for the full control effect; potency is read from the fitted curve at half-maximal effect; tags tell the direction and shape of the fitted curve.

| Compound | activity change, negative = inhibition | Potency |
| --- | --- | --- |
| CCC1CCCCN1CCNC(=O)C1CCN(S(=O)(=O)c2c(C)noc2C)CC1 (stereo not drawn) | inactive: -1.79% [at 46.1 µM] |  |
| Cc1onc(-c2c(Cl)cccc2Cl)c1CO/N=C(\C#N)c1c(Cl)cccc1Cl |  | inconclusive [activator, full curve] |
| O=C1c2ccccc2C(Nc2ccc(Cl)cn2)N1Cc1ccccc1 (stereo not drawn) |  | inconclusive [inhibitor, single point] |
| O=C(Nc1ccc(-c2csc(Nc3cccc(C(F)(F)F)c3)n2)cc1)c1cc([N+](=O)[O-])cc(C(F)(F)F)c1 |  | active: 10 µM |
| Cc1ccnc(NC(=O)CCc2c(C)nc3ncnn3c2C)c1 |  | inconclusive [inhibitor, single point] |
| O=S1(=O)N=C(Oc2cccc3ccccc23)c2ccccc21 |  | inconclusive [activator, single point] |
| COc1ccc(C2CC(=O)C3=C(C2)NC(C)=C(C(=O)Nc2ccccc2C)C3c2coc3ccc(C)cc3c2=O)cc1OC (stereo not drawn) |  | inconclusive [inhibitor, partial curve] |
| Cc1ccc(-c2nnc(OCc3cccnc3)c3ccccc23)cc1 |  | inconclusive [activator, partial curve] |
| Oc1c(Cl)cccc1C=Nc1cc(C(F)(F)F)ccc1N1CCCC1 | inactive: -2.87% [at 46.1 µM] |  |
| COc1ccc(Cl)cc1C(=O)Nc1ccc2c(c1)OCO2 |  | inconclusive [inhibitor, partial curve] |
| COc1ccc(CNC(=O)C(c2ccco2)N(Cc2ccccc2)C(=O)Cc2cccs2)cc1 (stereo not drawn) |  | inconclusive [inhibitor, single point] |
| CN(C)CCCNc1ncnc2sc(-c3ccccc3)cc12 | inactive: -37% |  |
| C/C=C/C=C\C(=O)Nc1cccc(C2=NOC3(C2)C[C@H](C(N)=O)N(C(=O)CC#N)C3)c1 (stereo partly drawn) | inactive: 22.6% |  |
| OC(CNCc1ccc(F)cc1)(c1ccccc1)c1ccc(F)cc1 (stereo not drawn) | inactive: -18.3% [at 46.1 µM] |  |
| CCC(CC)C(=O)Nc1ccc(Nc2ccccc2)cc1 | inactive: 16.4% |  |
| O=C(NC1CCCC1)C(c1ccc(N2CCOCC2)cc1)N(Cc1ccco1)C(=O)c1ccco1 (stereo not drawn) |  | inconclusive [inhibitor, single point] |
| COC(=O)c1sccc1NC(=S)Nc1ccc(F)cc1F | inactive: 1.31% |  |
| COC(=O)Cn1c(=NC(=O)c2ccc(Cl)s2)sc2cc(C)ccc21 |  | inconclusive [inhibitor, single point] |
| COC(=O)c1ccc(/C=N/NC(=S)NC(C)C)cc1 | inactive: 15.2% |  |
| CCCCC(=O)NC(=O)NC(c1ccccc1)c1ccccc1 |  | inconclusive [activator, single point] |
| O=C(O)CC(CC(=O)Nc1nncs1)c1ccccc1 (stereo not drawn) | inactive: 0.433% [at 46.1 µM] |  |
| COc1ccc(-c2nn(-c3ccccc3)cc2/C=N/N2C(=O)CSC2=S)cc1 |  | inconclusive [inhibitor, single point] |
| Cc1nnc(NCc2ccco2)c2ccccc12 | inactive: 1.98% [at 46.1 µM] |  |
| CCCCC(=NCCc1c(C)[nH]c2ccccc12)C1=C(O)CC(c2ccccc2)CC1=O (stereo not drawn) |  | active: 7.94 µM |
| CCCCc1ccc(NC=C2C(=O)OC3(CCCCC3)OC2=O)cc1 |  | inconclusive [inhibitor, single point] |

| Compound | activity change, negative = inhibition | Potency |
| --- | --- | --- |
| CCN(c1ccc2c(c1)OCO2)S(=O)(=O)c1cc(Br)cc2c1N(C(C)=O)CC2 |  | inconclusive [inhibitor, single point] |
| Cc1ccc(/C=C/c2nc3ccccc3[nH]2)o1 |  | inconclusive [inhibitor, single point] |
| Cc1cccc2sc(NC(=O)C3c4ccccc4Oc4ccccc43)nc12 |  | inconclusive [inhibitor, single point] |
| CCc1ccc(/C=N\NC(=O)c2ccc(Br)o2)s1 | inactive: -2.49% |  |
| CN1CCN(C(=S)c2ccc(-c3cccc([N+](=O)[O-])c3)o2)CC1 |  | inconclusive [inhibitor, single point] |
| O=S(=O)(c1ccc(OCc2nc3ccccc3s2)c(Cl)c1)N1CCOCC1 |  | inconclusive [inhibitor, partial curve, poor fit] |
| Cc1ccc(NCCC(=O)c2ccc(Cl)cc2)cc1C | inactive: -3.81% [at 46.1 µM] |  |
| O=C(O)c1ccc(NC2=C/C(=N/S(=O)(=O)c3ccccc3)c3ccccc3C2=O)cc1 |  | inconclusive [inhibitor, single point] |
| COc1ccc(C(=O)N/N=c2\oc3ccccc3cc2C(=O)NCc2ccccc2)cc1 |  | inconclusive [inhibitor, full curve, poor fit] |
| O=C1Nc2c(c(=O)[nH]c(=O)n2-c2ccccc2F)C(C(F)(F)F)(C(F)(F)F)N1 |  | inconclusive [activator, partial curve, poor fit] |
| CCc1ncc(C(=O)c2ccc(OC)cc2)n1C |  | inconclusive [inhibitor, partial curve, poor fit] |
| CCCCNCC1C(Oc2ccc(Cl)cc2)C(=O)N1c1ccccc1C (stereo not drawn) |  | inconclusive [inhibitor, single point] |
| O=C(Nc1nc2ccccc2n1CCN1CCOCC1)c1ccc(Cl)cc1 |  | inconclusive [inhibitor, single point] |
| NC(N)=NCCCCN=C(N)N | inactive: -7.49% [at 46.1 µM] |  |
| O=C(N/N=C/c1cc([N+](=O)[O-])ccc1O)c1cccc2cc[nH]c12 |  | inconclusive [activator, single point] |
| COc1ccc(C2CC(c3cccs3)=NN2c2ccccc2)cc1 (stereo not drawn) |  | inconclusive [activator, full curve, poor fit] |
| Cc1onc(-c2ccc(Cl)cc2)c1-c1ccnc(SCC(=O)Nc2ccc(C(C)C)cc2)n1 |  | inconclusive [activator, single point] |
| COC(=O)NNS(=O)(=O)c1ccc(C)cc1 | inactive: 6.65% |  |
| Cn1ncc2c(Nc3ccc(Br)cc3)nc(Nc3ccc(Br)cc3)nc21 |  | inconclusive [activator, single point] |
| O=C(Nc1ccccc1N1CCOCC1)c1cc(Br)c(Br)s1 |  | inconclusive [inhibitor, single point] |
| CN(C)S(=O)(=O)c1cccc(-c2nn(-c3ccccc3)cc2/C=C2\SC(=S)NC2=O)c1 |  | active: 7.94 µM |
| CC1CCCC(NC(=S)Nc2ccc(SC(F)F)cc2)C1C (stereo not drawn) |  | inconclusive [inhibitor, single point] |
| N#C/C(=C/c1ccc(Sc2nc3ccccc3[nH]2)o1)c1cccc(F)c1 |  | inconclusive [inhibitor, single point] |
| Cn1c(CSCCOc2ccccc2)n[nH]c1=S | inactive: 10.7% |  |
| Cc1ccc(C2CC(c3ccccc3)=NN2C(=O)CSc2nnc(-c3ccc(Cl)cc3)o2)o1 (stereo not drawn) |  | inconclusive [inhibitor, single point] |

| Compound | activity change, negative = inhibition | Potency |
| --- | --- | --- |
| COc1cc2c(cc1NC(=O)c1cccc([N+](=O)[O-])c1)oc1ccccc12 |  | active: 10 µM |
| Oc1c(Cl)cc(Cl)cc1C=Nc1ccc(Br)cc1 |  | inconclusive [inhibitor, single point] |
| COc1cc(/C=C2/C(=O)c3cccc([N+](=O)[O-])c3C2=O)c(Br)cc1O |  | active: 10 µM |
| CC(C)CCNc1nc(-c2ccco2)c2c(c1C#N)CCCC2 | inactive: -22.6% [at 46.1 µM] |  |
| O=C(CC(=O)NC1CCCCC1)N/N=C/c1ccc(Cl)cc1 |  | inconclusive [inhibitor, single point] |
| O=C1CC(NNc2ccccc2)C(=O)N1c1ccccc1 (stereo not drawn) | inactive: -5.11% |  |
| CC(NC(=O)CSc1nc(=O)cc(N)n1CCc1ccccc1)c1ccccc1 (stereo not drawn) |  | inconclusive [inhibitor, single point] |
| CCN(CC)C(=O)c1ccc(COc2ccccc2Cl)cc1 |  | inconclusive [inhibitor, single point] |
| NC(=O)SCC(=O)Nc1ccc(Cl)c(Cl)c1 |  | inconclusive [inhibitor, partial curve, poor fit] |
| O=C(Nc1ccc(Cl)cc1-c1nc2ccccc2s1)c1ccco1 |  | inconclusive [inhibitor, single point] |
| CCC(C)n1c(SCC(=O)Nc2ccccc2C(F)(F)F)nc2ccsc2c1=O (stereo not drawn) |  | inconclusive [inhibitor, single point] |
| COc1ccc(CCNc2nc(=S)[nH]c3cc(OC)c(OC)cc23)cc1OC | inactive: -31% |  |
| O=C(Nc1ccccc1)Nc1cc(S(=O)(=O)N2CCOCC2)ccc1N1CCCC1 | inactive: 6.61% |  |
| Cc1[nH]c(=O)[nH]c(=O)c1NC(=O)c1cccs1 |  | inconclusive [inhibitor, single point] |
| CCc1nc(Nc2ccc3c(c2)OCO3)c2oc3ccccc3c2n1 | inactive: -23.7% [at 46.1 µM] |  |
| Cc1ccc(C(=O)c2coc3c2C(=O)C(=O)c2ccccc2-3)cc1 |  | inconclusive [inhibitor, single point] |
| Cc1nc2cc(N3CCCCC3)c(NC(=O)c3ccncc3)cc2c(=O)n1Cc1ccc(Cl)cc1 | inactive: -5.46% [at 46.1 µM] |  |
| CCCC(=O)c1ccc(N2CCCC2)c(F)c1 | inactive: 3.43% [at 46.1 µM] |  |
| Cc1noc(C)c1COC(=O)C1(c2cccc(F)c2)CCCC1 |  | inconclusive [inhibitor, partial curve, poor fit] |
| CCOC(=O)c1cnc(SCCc2ccccc2)nc1N | inactive: -22.5% [at 46.1 µM] |  |
| COc1ccccc1-n1cnnc1SCC(=O)N1CCN(S(=O)(=O)c2ccccc2)CC1 |  | inconclusive [inhibitor, single point] |
| CC(=O)N1CCN(c2ccc(Nc3nc(C)nc4c3oc3ccccc34)cc2)CC1 | inactive: -16.9% [at 46.1 µM] |  |
| CSc1ccccc1NC(=S)Nc1cccc(C(F)(F)F)c1 | inactive: -9.87% [at 46.1 µM] |  |
